The BET-seq Pho4 binding data (Le et al. 2018)
This is one part of the list. These are noisy estimates, calculated here from bound and input reads.

Molecular target: T1, Pho4 (S. cerevisiae) (UniProt P07270)
T1 sequence: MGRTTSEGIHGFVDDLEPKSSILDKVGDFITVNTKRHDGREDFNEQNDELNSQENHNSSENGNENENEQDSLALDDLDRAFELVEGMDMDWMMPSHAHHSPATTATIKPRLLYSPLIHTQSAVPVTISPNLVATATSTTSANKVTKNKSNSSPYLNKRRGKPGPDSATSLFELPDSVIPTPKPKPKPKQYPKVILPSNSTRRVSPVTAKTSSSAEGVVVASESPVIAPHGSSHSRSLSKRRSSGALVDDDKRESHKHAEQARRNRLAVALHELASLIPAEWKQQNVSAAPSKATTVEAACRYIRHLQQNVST
Test: relative binding free energy (BET-seq); higher = weaker binding
Conditions: reference: library average

Sequence	relative binding free energy [kcal/mol]
GGCCACACGTGGGGTT	0
GACCACACGTGTGGGG	0.25
GGGTCCACGTGTAATT	0.2
AGGGTCACGTGCGGCG	0.02
GTGTTCACGTGGTTGA	0.3
GAGTACACGTGAGGGT	0.31
TTAGGCACGTGGCACG	-0.16
TGGGGCACGTGGAACA	0.01
GAGGGCACGTGGCGTC	-0.15
GTATACACGTGAGGAT	0.18
TAATTCACGTGAAGTA	0.34
AAGAGCACGTGATGGG	0.01
GGTCACACGTGTGTTT	0.25
GTTGGCACGTGCATTT	-0.05
TTCTACACGTGGATGT	0.12
GTAAACACGTGATGTA	0.24
AGAAACACGTGCGGGT	0.04
GTGTTCACGTGTTTAG	0.25
TTTAGCACGTGTGACA	0.02
AGTTGCACGTGATCTT	0.07
TCTGACACGTGGCGGG	-0.07
ACTTTCACGTGGTATA	0.14
TCTTGCACGTGGGTGA	-0.14
ATATGCACGTGTGGGC	-0.14
GGTTACACGTGTGTAC	0.14
TATGACACGTGTAATG	0.2

Sequence	relative binding free energy [kcal/mol]
GGGTGCACGTGGGCCC	-0.05
GTGGACACGTGTGTGT	0.1
TGTATCACGTGTAATA	0.13
AGCGTCACGTGGGGGG	-0.13
CAGGTCACGTGGAGTA	0.06
GTTATCACGTGGTTTT	0.22
TTTGACACGTGTAAAA	0.16
TGTTGCACGTGAGGAA	0.22
TTCTACACGTGTTTTT	0.17
ATGTGCACGTGTTGAG	-0.01
AGTGACACGTGGTATG	-0.06
AGGGACACGTGCGTCT	0.03
GTTGGCACGTGCGTTG	-0.08
ATGGTCACGTGTGTTA	0.16
TATCTCACGTGGTGTG	0.09
ATGAACACGTGATTGG	0.15
AGTAGCACGTGTCGGC	-0.08
TGGTGCACGTGAATAA	0.14
ATTCTCACGTGGGATT	0.19
TCAGACACGTGTTGGG	0.06
TTATCCACGTGAGGTA	0.17
TGGTGCACGTGGCTAA	0.02
CGGCGCACGTGGGCGT	-0.35
GCGGTCACGTGAAATT	0.54
GGCGGCACGTGTAGTG	0.07
GAATGCACGTGTGCTG	0.04

Sequence	relative binding free energy [kcal/mol]
ATTTGCACGTGGGTCG	0.01
AGGAGCACGTGTAGGC	-0.16
AGTAGCACGTGATATT	0.19
AAATGCACGTGCGGGG	-0.03
AGGGGCACGTGAAAGA	0.25
AAGAGCACGTGAGGTA	0.07
TTTGACACGTGGAGGC	0.02
ATGTTCACGTGCTTGA	0.28
GGTTCCACGTGGTGTT	0.13
AGTGTCACGTGTTAGG	0.07
CTGAGCACGTGTGTAG	-0.02
TATCGCACGTGAGGTC	0.21
ATAGGCACGTGCGTGA	-0.16
GTGAACACGTGATGGA	0.17
TGACGCACGTGAGGGG	0.11
CGGGGCACGTGTGGCA	-0.11
AGTACCACGTGGTGGA	-0.11
CGTTTCACGTGAGAGG	0.35
AATAACACGTGGTGAT	0.03
GGGGGCACGTGTTAGG	-0.09
CTGTGCACGTGATATG	-0.04
TGCCGCACGTGTTGGT	0
AGTGACACGTGTTGAG	0.01
TGAAGCACGTGGGGTG	-0.2
GCGGGCACGTGATGCG	-0.01
TGGGCCACGTGTGTGC	-0.01

Sequence	relative binding free energy [kcal/mol]
GATGGCACGTGGGGTC	-0.12
ATTTGCACGTGCTTGA	-0.18
GCTCGCACGTGGGGTG	-0.25
GATTTCACGTGGTCTT	0.26
TTTGCCACGTGCGGTA	-0.18
TTGCTCACGTGGTGAG	0.25
AGGTGCACGTGGTTCT	-0.17
TGTTACACGTGGTTAG	0.03
TGCTGCACGTGAGTGA	0.05
TCAGTCACGTGATGTG	0.11
TGGTGCACGTGATTTG	0.01
CAGATCACGTGGTGTG	0.05
GGTGGCACGTGTTTCT	0.01
TAGGTCACGTGTGACT	0.21
AATAACACGTGTTGTA	-0.04
TGTCTCACGTGTGTTT	0.14
AGTTGCACGTGAACGT	0.17
TTTTTCACGTGAACGT	0.44
CCGGACACGTGGGGGC	-0.05
GTGCTCACGTGGTAGA	0.1
TTTGACACGTGGTATC	0.01
TTCTGCACGTGTTGAA	0.08
GTGGTCACGTGTAATC	0.24
GATGGCACGTGATGTG	0.09
AGAGACACGTGAGTGT	0.28
AGCTGCACGTGTGATT	0.1

Sequence	relative binding free energy [kcal/mol]
TTGATCACGTGGATGT	0.18
TTTAACACGTGCAGGT	0.01
GTTGGCACGTGTCGGT	0.02
CGTAGCACGTGGGTCT	-0.08
TCAAGCACGTGAGTTT	0.2
GGATTCACGTGACTGG	0.46
GTTTGCACGTGCTGGT	0.04
AAGGGCACGTGGTGGC	-0.17
GGTATCACGTGGTTCG	0.18
GGTCCCACGTGGAGGT	0.03
CGGGCCACGTGGTTGA	-0.2
GGTATCACGTGACTTG	0.31
TCTTTCACGTGTATTG	0.11
TTTGTCACGTGCGTGG	-0.01
CCGCGCACGTGGGGGT	-0.37
GGTCACACGTGGATGG	0.06
ATATACACGTGTGATT	-0.04
GATCACACGTGGGGCG	0.13
TGGTACACGTGCGTCA	-0.02
AGTTTCACGTGTTAGG	0.25
GAAGGCACGTGGACAG	0.02
ATGGACACGTGTAGTA	0
GAGTGCACGTGCAGTT	0.01
TATGACACGTGTGTGT	-0.09
AACTGCACGTGTTTTG	0.08
TCATTCACGTGTGGCG	0.27

Sequence	relative binding free energy [kcal/mol]
TTCGTCACGTGAGAGT	0.38
AGGGTCACGTGTGATG	0.13
TTATTCACGTGGTCTC	0.11
TTGCGCACGTGGTTGC	-0.08
ATTTACACGTGTTGTA	0.16
CGGCGCACGTGGGATG	-0.23
GTGCACACGTGAGGTA	0.13
GGTGACACGTGCAGCG	0.01
TTTTTCACGTGCAGCG	0.36
CTTTGCACGTGTTGTT	-0.01
AGTGACACGTGTGCGA	-0.11
TTTTACACGTGGATTT	0.12
TCTTGCACGTGGCGGT	-0.18
TTTGTCACGTGGGGCA	-0.14
GTCTTCACGTGATTGG	0.33
GGTTGCACGTGGTGTC	0.02
GAGGTCACGTGCTTGG	0.23
GAATTCACGTGTAGTC	0.5
CTTTGCACGTGCAGTT	0.02
GCTAACACGTGGGGGT	-0.08
CCTGTCACGTGATTGT	0.23
TATTGCACGTGGTTAG	-0.07
TGTAACACGTGTGTTG	0.04
GAAATCACGTGTTTGT	0.18
TTCTTCACGTGGGATG	0.2
ATTTTCACGTGACTAT	0.3

Sequence	relative binding free energy [kcal/mol]
CTCTGCACGTGTTGGG	-0.12
GCGATCACGTGATGGT	0.37
TGTAACACGTGAGCAG	0.23
TCATTCACGTGAAGGG	0.23
CGTGCCACGTGAGGGA	0.17
CGAAGCACGTGGTATT	-0.11
TTCGTCACGTGGGCGA	-0.02
TCTAGCACGTGGTTTT	-0.07
AGTAACACGTGCAGGG	0.02
TCAGGCACGTGTGGTG	-0.16
TAGTTCACGTGGCCTG	0.12
GGGTTCACGTGCAAGT	0.27
TCGGTCACGTGAGGTT	0.29
GAGATCACGTGGCGGG	0.15
AAGATCACGTGGGGAT	0.06
ATTGACACGTGAATTT	0.36
GTAAACACGTGGTGGC	-0.06
ACTTTCACGTGAATGG	0.4
TGGGCCACGTGGTGGG	-0.07
TTGGGCACGTGGTGCA	-0.13
TTTGTCACGTGGCGCT	-0.02
ATCTACACGTGAGGTG	0.27
CTGTACACGTGCAGGT	0.06
TATATCACGTGTGGCG	0.18
ATTGGCACGTGCCGGT	-0.15
CGTTGCACGTGGGGTG	-0.2

Sequence	relative binding free energy [kcal/mol]
TATAACACGTGAGTTT	0.15
AGTGTCACGTGTTTTT	0.11
TGGGGCACGTGGGGTG	-0.31
ATTATCACGTGCGGTA	0.24
GGTGTCACGTGTGGCA	0.18
TATTCCACGTGATGTG	0.08
CGGTGCACGTGGGTGG	-0.17
ATTAGCACGTGCTGTA	-0.16
TGTCGCACGTGAATTT	0.44
AATTGCACGTGCGGGG	-0.08
TATTGCACGTGAGAGA	0.22
TGGTCCACGTGTTAAG	-0.07
TAGTTCACGTGATTTG	0.33
AATTTCACGTGGACTG	0.18
TGTCGCACGTGGCCTT	0
AGGGACACGTGTTTAA	0.15
GACCGCACGTGGGTGG	-0.19
ATGTGCACGTGGCTGT	-0.08
CTGAGCACGTGGTTAG	-0.24
TAGTACACGTGGTTGG	0.08
AGTGTCACGTGAGGTC	0.12
GTATGCACGTGGCTTG	-0.12
AGGTTCACGTGTAGGC	0.32
TTTGGCACGTGGGGAT	-0.07
TGATTCACGTGTAAGC	0.52
TTTAACACGTGTTAGG	-0.06

Sequence	relative binding free energy [kcal/mol]
GAGTTCACGTGGTTCG	0.17
AATAGCACGTGTGTGC	-0.07
ATATTCACGTGGAGAG	0.11
GTACTCACGTGTGTGG	0.2
ATGTACACGTGCGGGT	0.06
TTCGTCACGTGGTGAA	0
TTCATCACGTGTGGTG	0.14
TGTGGCACGTGCCCGG	-0.25
GGGTCCACGTGCGTAG	0
AGATTCACGTGTGGCG	0.21
ATAGACACGTGTGAAG	0.1
GTGGTCACGTGTGCAA	0.16
TGGTGCACGTGGGTGA	-0.21
TAGGGCACGTGTTCGT	-0.19
TGATGCACGTGGGAAG	0.04
TCGTACACGTGGTTTG	0.06
ATGGCCACGTGTTGTA	-0.02
TTGCTCACGTGTGGCG	0.21
GGGGCCACGTGTTCGT	-0.1
GGAGGCACGTGATATT	0.15
GTAAGCACGTGTTTTA	-0.04
AGCGGCACGTGTAACG	0.21
